Assay results from patent US20250248396A1, “CHITOSAN ENCAPSULATION OF ABSOLUTE (ESSENTIAL) ROSEMARY, PEPPERMINT, AND COTTONSEED OILS” (priority 2024, published 2025).
Marks after values point to notes of the source that are not given here.

Experiments:
[1] = system: root-knot nematodes (Meloidogyne spp.); assay: Nematocidal activity on hatched root-knot nematodes in Petri dish; format: in vivo; conditions: 1 day, of 15
Method: In some embodiments, the nematodes used in the experiments were mainly Meloidogyne spp. The below disclosed experiment results are related to the evaluation of nematocidal activity of naturally derived material.
The tomato roots infected with root-knot nematodes were washed with running water and were then cut to a size of about 1 cm, after which 50 g of the cut roots were placed in a 500 ml round-bottom flask containing 200 ml of 0.5% sodium hypochloride (NaOCI), stopped with a rubber stopper, and shaken vigorously for 3 min to sterilize the roots and at the same time burst the egg bag. Thereafter, the solution was passed through a sieve in which 200 mesh was superimposed on 500 mesh, and washed with distilled water, so the eggs of the root-knot nematodes from which the NaOCl solution was removed were recovered.
Next, the eggs of the root-knot nematodes thus recovered were surface-sterilized with 0.5% NaOCl for 10 min, washed thoroughly with sterile distilled water, placed in a phosphate buffer (1%) containing sterilized normal saline, and hatched in an incubator at 25° C.
Thereafter, each mixed solution was diluted to 2000 ppm, 2 to 3 ml thereof was poured into a Petri dish, after which 15 hatched root-knot nematodes were placed in the Petri dish, and nematocidal activity was measured and the results thereof are shown in Table 1 below. […]

tomato seedlings = assay: Phytotoxicity of geraniol drenching treatment on potted tomato seedlings; format: in vivo; conditions: Tomato, 50 ml drench, 1 week
Text: Sterilized soil was uniformly mixed, 300 g thereof was then placed in each pot, and tomato seedlings not infected with root-knot nematodes were transplanted thereto.

## CC(C)=CCC/C(C)=C/CO [Geraniol, 3,7-dimethyl-2,6-octadien-1-ol]
[1]; Geraniol 2,000 ppm
  number of killed root-knot nematodes: 15
[1]; Geraniol 10,000 ppm
  number of killed root-knot nematodes: 15^a
Tomato seedlings; Geraniol 100 ppm
  Extent of phytotoxicity (0-5): 0
  Phytotoxicity symptom: No
Tomato seedlings; Geraniol 200 ppm
  Extent of phytotoxicity (0-5): 0
  Phytotoxicity symptom: No
Tomato seedlings; Geraniol 330 ppm
  Extent of phytotoxicity (0-5): 0
  Phytotoxicity symptom: No
Tomato seedlings; Geraniol 500 ppm
  Extent of phytotoxicity (0-5): 0
  Phytotoxicity symptom: No
Tomato seedlings; Geraniol 1,000 ppm
  Extent of phytotoxicity (0-5): 0
  Phytotoxicity symptom: No
Tomato seedlings; Geraniol 2,000 ppm
  Extent of phytotoxicity (0-5): 0
  Phytotoxicity symptom: No
Tomato seedlings; Geraniol 3,000 ppm
  Extent of phytotoxicity (0-5): 0
  Phytotoxicity symptom: No
Tomato seedlings; Geraniol 4,000 ppm
  Extent of phytotoxicity (0-5): 5
  Phytotoxicity symptom: Withered
Tomato seedlings; Geraniol 5,000 ppm
  Extent of phytotoxicity (0-5): 5
  Phytotoxicity symptom: Withered
Tomato seedlings; Geraniol 10,000 ppm
  Extent of phytotoxicity (0-5): 5
  Phytotoxicity symptom: Withered
Tomato seedlings; Geraniol 20,000 ppm
  Extent of phytotoxicity (0-5): 5
  Phytotoxicity symptom: Withered
